Results: the supplement of paper PMC10126150
Values marked as one replicate rest on one cluster of the flow cell; about a third of the high ones do not repeat.

Tested on: ATP
Assay: switch fluorescence ratio, 500 uM ATP over buffer (Cy3 cluster intensity, sum of 5 cycles each) (fold (ratio)); higher = stronger signal-on switching upon ATP binding; sequences stand for … in TCGTCGGCAGCGTCAGATGTGTATAAGAGACAGTTTTTTTTTTTTTTTTTTTTTTTTT…TC
Settings: aptamer strand: ATP DNA aptamer (quencher-CACCTGGGGGAGTATTGCGGAGGAAGG + anchor), 100 nM annealed; ATP concentration: 500 uM; one replicate
Outline: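 For every switch-domain sequence, the fluorescence ratio is the mean of per-cluster values, each being summed target-cycle Cy3 intensity over summed buffer-cycle Cy3 intensity. Clusters outside 100-1000 RFU were excluded. On a modified Illumina MiSeq flow-cell, the Cy3-labelled switching-strand clusters were annealed to 100 nM quencher-labelled ATP aptamer, imaged in selection buffer and then after 15 min with 500 uM ATP at 22 °C. Five such cycles were run, with NaOH stripping and re-annealing between them.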
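Also: ATP exposure 15 min at 22 °C before imaging.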

Sequence	switch fluorescence ratio
TAATCGCTGT	1.04
TAAGGAGGG	1
GATTTATTAA	0.979
TGGCCGAGGA	0.971
GCGGTGATGT	0.994
TAGAATGTTA	0.979
GGATAGACGT	1
AGTAATAATC	1.17
GCACGTAACG	1.11
TTGTATGGAA	0.976
GAAGTCGTTG	0.967
ACATTTAGGA	1.01
CAGCGAGCAG	0.999
AAGCTTTTAG	0.992
AAACAGCCA	1.02
ATGATCTGCA	0.976
CGTTTTTATA	1.02
AGAGTTCAGG	0.964
CGGCATAAAG	1.02
TCTATACTGT	1.01
ATCGGATCAT	0.938
TCAATGGCTC	0.994
TCGTGCAATT	1.72

Sequence	switch fluorescence ratio
CTATAATGCT	0.994
AACTTCACTA	1.13
GTTACTAGTC	0.952
CTCTATTATC	1.05
ATTTTGCGTA	0.985
GAGGAGTGCA	0.981
ACCGCAGCGG	1.01
CCGCATGTCA	3.83
AAAACTTGTT	0.966
CTCACAAGGG	1.12
GATGACACAG	0.976
ACTAATTCGA	0.988
AGCTTGGAGG	1.04
TTTCGACCTC	1.1
AAATTCAGTG	0.975
CGTAGGTCAA	1.07
TAATGGATCC	0.989
ACAATTGGAT	1.01
TTACGTCTTT	1
AACGTCAGCG	0.964
TTGAGAGTGC	0.992
GCTGAAAAGC	1.03
CTATCGAAGG	0.974

Sequence	switch fluorescence ratio
TCATAGAGCG	0.996
GCAGCAGTCT	1.08
GGCTCCACAG	1.23
CGTCATGTAA	0.996
AGGTTTGAAC	0.99
GACGTTTGGC	0.989
AGGAAGTAAC	1
CACTCACGCC	1.49
AATGTCACTA	1.04
AGTCGAGTGT	1
GCTACGTTAC	2.75
ATTATTTGT	0.983
TTTAATGGTG	1.14
TCAATCTCGT	1.01
TCATGCCGAA	0.978
GCCTGCAATT	1.1
ATTAGTACAC	1.09
AAGTGTGGTG	0.995
CTTTGGCTGG	1.01
CACTACTTCA	1.1
TACGATTTCA	1.01
AGTATTCCTG	0.995
AATCTTGTTA	1

Sequence	switch fluorescence ratio
ACCGGAGCTC	5.56
CCGTTCTGT	1.02
AGTTTCGAAT	0.99
CGTAATTTTG	1.01
ATCAGTAGT	1.03
AGTGGAGCGT	1.03
TGTGCAAGTT	0.963
TAGGACTAGG	0.964
AATTGGTCGA	1.03
AGTTTAGCTG	0.945
ACTCGTGCGG	0.97
AGGAGGCAGA	0.992
ACGCGCTTCG	1.03
CGAGGCGTAG	1.09
GATGTATGCA	0.98
TTCTTAATAT	0.986
ACAGTACGGT	1.41
TTGACTTACA	1.31
AATGAGCATT	0.983
TGGAAAGTCA	1
ACATCCGTAG	1.18
GCTTGGCCAC	1.01
GCAGCTATGG	1.68

Sequence	switch fluorescence ratio
AGGTATAGTG	0.985
CTTAGCGATC	1.45
GTCGCTTGAC	1
GACGAGCAAG	1.18
ATACTCAAGA	1.05
ACACTTTGCG	1.05
AGTACGTGGA	1.01
GATGCAGTT	1.04
GGGTGTAAA	1.1
TAGGGTTTT	1
TACTTTTAAT	1.04
ACCCTAAGCG	1.1
TTGTCCTATG	0.988
CAATACCTGT	1.02
CATAATAGAC	1.03
AGCATGATCG	1.05
TGGGAATCGG	0.995
GAGAAGTACG	1.05
GCGGAGGCTT	1
GACTACTCTG	1.04
TTTTGTTCGC	1.02
ACCGCCGAGT	1.12
GATACACGG	0.978

Sequence	switch fluorescence ratio
GAGTGTATGC	1.03
TTAAATAAC	0.966
GAGTGAAATC	1.01
TGGACACCG	1.01
GCGACGCATT	4.3
GGGGCACAAT	1.14
CAGGCGAGG	1.01
TCTCGGGAGC	1.01
GGTCAAAGGA	1.07
CAGGCGGCTG	0.972
CAAGCTTTCA	1.04
GCGACATGTG	1
GCCACCAGGC	1.04
GACAGAAAAA	1.09
ATCATATTTC	1.02
GAGAAGTTAA	1.01
TCGCTAGCTA	1.03
TTGAAGTTGG	0.965
GTGTTGGGCG	1.01
GGGTCAATT	0.983
TAAGGTTTTC	1.04
ATCGCGCATT	1.15
TTAGCCAAA	1.01

Sequence	switch fluorescence ratio
GCGGGTTACG	1
ATCCAATTTC	0.997
GAGGCGGAGA	0.986
GCCTCTGGGA	1.04
TGCGTTAGTT	0.963
GAGGAGCACA	1.08
TCCGCCAACT	2.63
GCACTTAAAT	0.994
TCGTCGTTA	0.933
CAAAGGAATA	0.977
CGCATGTGCA	1.05
TCTCTATGTT	0.996
TGATCCAGC	1.07
ACAGCTATTT	1.06
AACGTAGGGT	1.01
GCGTCTATAT	1.03
GGGTATTAA	0.982
AGAATGAAGA	0.992
ACAATGTACC	1.15
